# PMC4336329 (PLoS ONE, 2015)
# The campaign covered roughly 310,000 compounds. About 14,000 (4.5%) showed an effect of 50% or more. The effect is printed as a negative number. The list shows a part of the results.
# Molecular target: human ether-à-go-go-related gene (hERG) potassium channel (human, UniProt Q12809)
# Experiment: primary screen, population patch clamp on CHO cells stably expressing hERG
# 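Note: peak tail current of the secondary pulse compared with the same well before compound.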
# Sequence of human ether-à-go-go-related gene (hERG) potassium channel (Q12809 whole entry, looked up): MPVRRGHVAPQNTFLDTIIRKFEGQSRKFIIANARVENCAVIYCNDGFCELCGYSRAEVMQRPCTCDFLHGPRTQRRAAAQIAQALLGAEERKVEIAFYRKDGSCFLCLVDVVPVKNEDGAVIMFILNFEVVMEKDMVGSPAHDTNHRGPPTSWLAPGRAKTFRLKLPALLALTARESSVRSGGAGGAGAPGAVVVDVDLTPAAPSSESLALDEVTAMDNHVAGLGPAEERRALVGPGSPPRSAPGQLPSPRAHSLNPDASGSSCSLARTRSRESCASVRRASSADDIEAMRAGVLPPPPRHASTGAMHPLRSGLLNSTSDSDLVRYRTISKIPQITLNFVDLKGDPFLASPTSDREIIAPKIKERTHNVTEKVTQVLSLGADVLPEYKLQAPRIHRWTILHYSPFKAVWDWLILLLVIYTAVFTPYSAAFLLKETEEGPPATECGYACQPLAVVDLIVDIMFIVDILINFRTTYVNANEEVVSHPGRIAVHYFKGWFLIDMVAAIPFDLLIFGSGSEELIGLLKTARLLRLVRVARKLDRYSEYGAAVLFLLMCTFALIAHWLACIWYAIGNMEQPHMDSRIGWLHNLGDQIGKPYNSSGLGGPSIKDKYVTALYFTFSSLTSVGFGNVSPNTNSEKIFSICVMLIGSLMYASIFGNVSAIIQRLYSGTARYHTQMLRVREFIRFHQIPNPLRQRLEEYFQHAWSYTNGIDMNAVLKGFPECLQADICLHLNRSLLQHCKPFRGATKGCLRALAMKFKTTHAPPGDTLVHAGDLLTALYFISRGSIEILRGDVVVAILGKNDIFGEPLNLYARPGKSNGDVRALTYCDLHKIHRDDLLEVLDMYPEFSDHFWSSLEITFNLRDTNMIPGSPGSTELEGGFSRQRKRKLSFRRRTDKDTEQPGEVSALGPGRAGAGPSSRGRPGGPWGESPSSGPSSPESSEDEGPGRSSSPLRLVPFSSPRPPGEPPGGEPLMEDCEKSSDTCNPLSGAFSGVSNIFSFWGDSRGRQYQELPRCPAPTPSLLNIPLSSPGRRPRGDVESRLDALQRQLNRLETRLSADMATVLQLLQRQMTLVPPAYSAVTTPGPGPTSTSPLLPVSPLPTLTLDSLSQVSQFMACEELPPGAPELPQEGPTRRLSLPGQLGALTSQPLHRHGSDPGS
row,Structure (SMILES),"hERG current change (%, negative = inhibition) at 10uM"
1,Cc1ccc(C(=O)Nc2ccn(Cc3ccc(F)cc3)n2)o1,-25.3%
2,N#Cc1cccc(C(=O)OCC(=O)N2CCCc3ccccc32)c1,-1.94%
3,O=C1Nc2ccccc2S/C1=C/Nc1cccc(Cl)c1,-3.01%
4,O=C(Nc1cccc(N2CCCC2)c1)c1cccs1,-2.81%
5,COc1ccc(-c2cc(-c3ccccc3)nc3ncnn23)cc1,-56.4%
6,COc1ccc(OC)c(C(=O)NC(CC(N)=O)c2ccc(NCc3ccc(F)c(F)c3)c([N+](=O)[O-])c2)c1 (stereo not drawn),-5.23%
7,CC(=O)N1CCC(=NNc2nc3ccccc3s2)CC1,4.41%
8,O=C(C1CCCCC1)N1CCC(c2nc3c(nnn3Cc3c(F)cccc3Cl)c(=O)[nH]2)CC1,-6.61%
9,CCOC(=O)COc1ccc(S(=O)(=O)Nc2ccc3c(c2)OCO3)cc1,-0.179%
10,CC(=O)c1ccc(N2CCc3ccccc3C2)c([N+](=O)[O-])c1,-6.56%
11,COc1cc2c(cc1OC)C(c1ccc(Br)cc1)NCC2 (stereo not drawn),-19.8%
12,COc1ccc([N+](=O)[O-])cc1NC(=O)c1ccco1,1.01%
13,Cc1nc2ccccn2c1-c1ccnc(=S)[nH]1,29%
14,Cn1cc(CC(=O)N2CCN(c3ccc(Cl)cc3)CC2)c2ccccc21,-9.66%
15,O=c1oc2cccnc2n1CCS(=O)(=O)c1ccc(F)cc1,9.29%
16,Nc1nc(SCC(=O)Nc2ccc(Cl)cn2)n[nH]1,17.1%
17,Cc1cc(C)c(NC(=O)CN2CCC(NC(=O)NC3CCCCC3)CC2)c(C)c1,4.23%
18,CN1CCN(c2ccc([N+](=O)[O-])cc2C(=O)N2CCCCC2)CC1,-7.66%
19,CN(C(=O)OC(C)(C)C)c1ccc(-c2nc3ccccc3s2)cc1,21.9%
20,COc1cccc(NC(=O)Nc2ccc(Br)cn2)c1,17.6%
21,Cc1c(Cl)c([N+](=O)[O-])nn1CC(=O)Nc1c(C)n(C)n(-c2ccccc2)c1=O,2.53%
22,CCC(=O)Oc1ccc(C/C(=N\O)c2ccc(O)cc2O)o1,-8.07%
23,COc1ccc(OC)c(S(=O)(=O)n2cnc3ccccc32)c1,-5.26%

row,Structure (SMILES),"hERG current change (%, negative = inhibition) at 10uM"
1,Cc1cc(C(=O)CCC(=O)N2CCN(c3ccccc3)CC2)c(C)s1,-36.6%
2,COc1cc2ncnc(NCc3ccc(C)cc3)c2cc1OC,-0.937%
3,COC(=O)CSc1ncnc2c1cnn2-c1ccc(C)cc1C,0.428%
4,CCc1ccc(CNC(=O)C(=O)NCC2CCCO2)cc1 (stereo not drawn),9.58%
5,O=C(NCCS(=O)(=O)N1CCN(c2cccc(Cl)c2)CC1)C1CCCC1,-79%
6,COc1cc([N+](=O)[O-])cc2sc(NC(=O)c3c(F)cccc3F)nc12,-8.06%
7,CCOc1ccc(NC(=S)N(CCCN2CCOCC2)Cc2cn(C)c3ccccc23)cc1,-37.6%
8,Cc1ccc(NC(=O)CCSc2nc(C)cc(C)n2)cc1,9.91%
9,COc1ccc(S(=O)(=O)NCC(=O)N(CC(=O)NCc2ccco2)C2CCCC2)cc1,16.9%
10,COc1ccc(C2CC(=O)Nc3cc(OC)c(OC)cc32)cc1Br (stereo not drawn),11.9%
11,Cc1cccc(C)c1OC(=O)Cc1ccccc1[N+](=O)[O-],-4.62%
12,O=C(c1cc(-c2cccs2)on1)N1CCCc2ccccc21,-11.2%
13,COc1ccc(CC(=O)Nc2ccc3c(c2)CCC3)cc1OC,-7.09%
14,CCC1CCCCN1C(=O)COc1ccc2c3c(c(=O)oc2c1)CCC3 (stereo not drawn),-17.7%
15,CN1/C(=C\C=C2/SC(=S)NC2=O)C(C)(C)c2ccccc21,3.39%
16,CCSc1nnc(Cn2c(=O)sc3ccccc32)n1-c1ccc(OC)cc1,-10.3%
17,COc1cccc(-c2sc3ccc(OC)cc3c2-c2ccc(C(N)=O)cc2)c1,12.7%
18,Cc1cccc(-c2n[nH]c(=S)n2/N=C/c2ccco2)c1,2.87%
19,CCC1CCCCN1CCCNC(=O)c1ccc(N2CCCC2=O)cc1 (stereo not drawn),-0.0254%
20,O=c1c2cccc(Cl)c2nc2n1Cc1ccccc1-2,4.04%
21,Cc1cc(C)c(C(=O)COC(=O)c2c(C)noc2C)cc1C,-10.5%
22,CCOc1ccc(S(=O)(=O)NCc2ccccc2Cl)cc1C(N)=O,2.73%
